Molecules are shown by their SMILES. Hit rate of the full screen: of about 310,000 compounds, about 2,200 (0.71%) showed an effect of 50% or more. The effect is printed as a negative number. The list shows a part of the results.

In this experiment the target is human ether-à-go-go-related gene (hERG) potassium channel (human, UniProt Q12809). Put plainly: primary screen, population patch clamp on CHO cells stably expressing hERG.
Chain of human ether-à-go-go-related gene (hERG) potassium channel (Q12809 whole entry, looked up): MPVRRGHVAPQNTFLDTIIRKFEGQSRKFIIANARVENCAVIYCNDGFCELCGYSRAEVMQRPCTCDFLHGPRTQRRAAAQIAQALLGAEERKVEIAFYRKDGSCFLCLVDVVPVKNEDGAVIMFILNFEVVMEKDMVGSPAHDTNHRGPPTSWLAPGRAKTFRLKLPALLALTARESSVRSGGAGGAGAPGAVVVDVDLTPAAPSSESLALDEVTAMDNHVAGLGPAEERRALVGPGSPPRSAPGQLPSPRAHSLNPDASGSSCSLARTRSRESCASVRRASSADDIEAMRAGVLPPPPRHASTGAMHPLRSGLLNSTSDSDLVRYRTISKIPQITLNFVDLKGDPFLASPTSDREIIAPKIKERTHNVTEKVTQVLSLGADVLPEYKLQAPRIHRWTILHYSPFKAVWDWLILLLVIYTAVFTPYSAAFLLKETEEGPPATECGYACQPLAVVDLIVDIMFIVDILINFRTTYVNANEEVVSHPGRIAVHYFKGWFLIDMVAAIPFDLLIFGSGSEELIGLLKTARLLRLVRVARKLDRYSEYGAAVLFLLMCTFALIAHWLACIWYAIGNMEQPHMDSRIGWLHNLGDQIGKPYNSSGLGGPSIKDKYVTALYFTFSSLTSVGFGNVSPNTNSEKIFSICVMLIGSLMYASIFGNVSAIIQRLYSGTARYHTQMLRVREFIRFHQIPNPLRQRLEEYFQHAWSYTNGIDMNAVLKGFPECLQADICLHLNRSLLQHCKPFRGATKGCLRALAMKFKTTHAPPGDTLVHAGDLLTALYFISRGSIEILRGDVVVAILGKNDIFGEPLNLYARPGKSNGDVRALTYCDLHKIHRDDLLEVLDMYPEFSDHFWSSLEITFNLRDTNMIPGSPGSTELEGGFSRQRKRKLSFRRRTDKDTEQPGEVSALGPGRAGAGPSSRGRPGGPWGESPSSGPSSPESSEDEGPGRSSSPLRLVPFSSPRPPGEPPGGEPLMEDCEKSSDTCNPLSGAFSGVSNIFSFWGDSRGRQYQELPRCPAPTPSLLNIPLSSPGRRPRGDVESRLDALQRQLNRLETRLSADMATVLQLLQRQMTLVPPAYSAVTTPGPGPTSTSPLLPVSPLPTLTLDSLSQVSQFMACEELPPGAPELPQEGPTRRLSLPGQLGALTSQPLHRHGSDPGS
For `Cc1cc(C(=O)Nc2ccc([N+](=O)[O-])cn2)cs1`, the “hERG current change (%, negative = inhibition) at 1uM” value worked out at 16.4%.

For `O=C(/C=C/c1cccs1)N1CCC2(CC1)Oc1ccc(F)cc1C(=O)C21CC(c2ccccc2)=NO1` (stereo not shown), the “hERG current change (%, negative = inhibition) at 1uM” value is reported as 3.49%.

In the case of `CN(C(=O)c1nn(C)c2c1CS(=O)(=O)c1ccccc1-2)c1cccc(Cl)c1`, the “hERG current change (%, negative = inhibition) at 1uM” value is 3.91%.

Consider `Cc1ccc(NC(=S)N/C(=N/S(=O)(=O)c2ccccc2)c2ccccc2)cc1`, for which the “hERG current change (%, negative = inhibition) at 1uM” value is 8.9%.

Regarding `Cc1cc(=O)[nH]c(SCC(=O)Nc2ccc3c(c2)CCC3)c1C#N`, the “hERG current change (%, negative = inhibition) at 1uM” value amounted to 8.12%.

Regarding `Cc1noc(C)c1S(=O)(=O)N1CCC(C(=O)Nc2ccccn2)CC1`, the “hERG current change (%, negative = inhibition) at 1uM” value is given as -5.02%.

On to `CC(C)(C)c1ccc(O)c(N)c1`, for which the “hERG current change (%, negative = inhibition) at 1uM” value was 9.43%.

In the case of `CCCOc1ccc(C(CC(=O)O)NC(=O)C(c2ccccc2)c2ccccc2)cc1` (stereo not shown), the “hERG current change (%, negative = inhibition) at 1uM” value amounted to 11.6%.

Turning to `CC(C(=O)c1c[nH]c(C(=O)N=CN(C)C)c1)c1ncc(C(F)(F)F)cc1Cl` (stereo not shown), the “hERG current change (%, negative = inhibition) at 1uM” value was 7.65%.

As to `O=C(/C=C\Nc1cccc(F)c1)c1cccs1`, the “hERG current change (%, negative = inhibition) at 1uM” value is on record as 16.1%.

On to `CCCc1nc2c(=O)[nH]c3ccccc3c2o1`, for which the “hERG current change (%, negative = inhibition) at 1uM” value came to 5.98%.

`COc1cc(C(=O)NC2(C(F)(F)F)NC(=O)N(CCCc3ccccc3)C2=O)cc(OC)c1OC` (stereo not shown): the “hERG current change (%, negative = inhibition) at 1uM” value was -0.405%.

In the case of `O=P(C(=Nc1ccc(Cl)cc1)N1CCOCC1)(N1CCOCC1)N1CCOCC1`, the “hERG current change (%, negative = inhibition) at 1uM” value came out at 1.44%.

Consider `O=Cc1cn[nH]c1-c1cccc([N+](=O)[O-])c1`, for which the “hERG current change (%, negative = inhibition) at 1uM” value is 3.95%.

Take `O=C(Cc1cccs1)N1CCN=C1SCc1cccc(F)c1`: the “hERG current change (%, negative = inhibition) at 1uM” value was found to be 11.1%.

For `CC(=O)Nc1ccc(NC(=O)CSCc2ccccc2Cl)cc1`, the “hERG current change (%, negative = inhibition) at 1uM” value turned out to be 11.1%.

With `CC(C)N1CCN(c2ccncc2S(=O)(=O)N2CCOCC2)CC1`, the “hERG current change (%, negative = inhibition) at 1uM” value is 16.8%.

`CC(C)CC(NS(=O)(=O)c1ccc2c(c1)oc(=O)n2C)C(=O)NC1CCCc2ccccc21` (stereo not shown): the “hERG current change (%, negative = inhibition) at 1uM” value amounted to 13.9%.

As to `OCCN(Cc1ccccc1)Cc1ccccc1F`, the “hERG current change (%, negative = inhibition) at 1uM” value is on record as -7.32%.

For `CCOc1cc(/C=C2\SC(=S)N(NC(=O)c3cccnc3)C2=O)ccc1O`, the “hERG current change (%, negative = inhibition) at 1uM” value came to 19.6%.

On to `CCc1ccc(OCc2ccc(C(=O)NCc3ccccn3)o2)cc1`, for which the “hERG current change (%, negative = inhibition) at 1uM” value is -11.2%.

Consider `CCC1SC2=NC(C)=C(C(=O)OC)C(c3cccs3)N2C1=O` (stereo not shown), for which the “hERG current change (%, negative = inhibition) at 1uM” value worked out at 7.32%.

Consider `NS(=O)(=O)c1ccc(NC(=O)COC(=O)c2cc([N+](=O)[O-])ccc2Cl)cc1`, for which the “hERG current change (%, negative = inhibition) at 1uM” value was determined as 9.69%.

Take `COCCNC(=O)/C(C#N)=C/c1c(N2CC(C)OC(C)C2)nc2ccccn2c1=O` (stereo not shown): the “hERG current change (%, negative = inhibition) at 1uM” value is on record as 8.79%.

As to `CCOc1ccccc1-n1c(SCC(=O)NC)nnc1-c1ccco1`, the “hERG current change (%, negative = inhibition) at 1uM” value was 5.55%.

On to `CN(c1ccc(F)cc1)S(=O)(=O)c1ccc(Cl)c(C(=O)OCC(=O)NCc2ccco2)c1`, for which the “hERG current change (%, negative = inhibition) at 1uM” value was 13.6%.

Consider `O=C(Nc1nc(-c2ccc3ccccc3c2)cs1)C1CCN(S(=O)(=O)c2cccs2)CC1`, for which the “hERG current change (%, negative = inhibition) at 1uM” value is given as 9.97%.

As for `CCOC(=O)c1sc(=S)n(-c2ccc(Cl)cc2)c1SC`, the “hERG current change (%, negative = inhibition) at 1uM” value is listed as -7.5%.

Take `CCOc1ccc(OCC)c(NC(=O)CSc2nnc(Cn3cnc4ccccc43)n2C)c1`: the “hERG current change (%, negative = inhibition) at 1uM” value is on record as -6.7%.

In the case of `CNC(=O)c1cc2ccc(OC)cc2oc1=O`, the “hERG current change (%, negative = inhibition) at 1uM” value is recorded as 3.22%.

Consider `Cc1cccc(C)c1NC(=S)N/N=C/c1c(Cl)cccc1Cl`, for which the “hERG current change (%, negative = inhibition) at 1uM” value worked out at 9.01%.

In the case of `O=C(O)/C=C\C(=O)Nc1cccc(C(=O)Nc2cccc(O)c2)c1`, the “hERG current change (%, negative = inhibition) at 1uM” value is 8.09%.

As to `O=C(Oc1cccc(/C=N/Nc2nc(N3CCOCC3)nc(N3CCOCC3)n2)c1)c1ccco1`, the “hERG current change (%, negative = inhibition) at 1uM” value came to 2.17%.

On to `Cc1ccc(CN2C(=O)CCC2C(=O)NCc2ccc(F)cc2)cc1` (stereo not shown), for which the “hERG current change (%, negative = inhibition) at 1uM” value is on record as 2.33%.

With `C/C(O)=c1/cnc2nc3ccccc3n2c1=O`, the “hERG current change (%, negative = inhibition) at 1uM” value came to 11%.

With `Cc1ccnc2nc(C(=O)NC3CCCc4ccccc43)nn12` (stereo not shown), the “hERG current change (%, negative = inhibition) at 1uM” value is 11.4%.

`CCOC(=O)C1(Cc2cccc(OC)c2)CCN(Cc2cccc(O)c2)CC1`: the “hERG current change (%, negative = inhibition) at 1uM” value is -9.46%.

For the compound `CC(C)NC(=O)CN1C(=O)C(C)(C)Oc2ccc(C(=O)NC3CCCCC3)cc21`, the “hERG current change (%, negative = inhibition) at 1uM” value is reported as 13.2%.

Take `CCOCCCNc1nc2c(-c3ccccc3)nnn2c2ccccc12`: the “hERG current change (%, negative = inhibition) at 1uM” value came to 19.9%.

For `O=C(COC(=O)/C=C/c1cccc(Br)c1)Nc1cccc(S(=O)(=O)NC2=NCCC2)c1`, the “hERG current change (%, negative = inhibition) at 1uM” value is 4.13%.

As to `Cc1cccc(-n2ncc3c2CCCC3NC(=O)Cn2cccn2)c1C` (stereo not shown), the “hERG current change (%, negative = inhibition) at 1uM” value is 6.35%.

Regarding `COc1ccc([N+](=O)[O-])cc1NC(=O)C(C)OC(=O)C1CC(=O)N(Cc2ccco2)C1` (stereo not shown), the “hERG current change (%, negative = inhibition) at 1uM” value is -6.39%.

For `CC1CCCCN1C(=O)c1cc(-c2ccc(Cl)c(Cl)c2)on1` (stereo not shown), the “hERG current change (%, negative = inhibition) at 1uM” value is on record as -17%.

The record behind these values is publication PMC4336329 (PLoS ONE, 2015).
